A lower IC50 marks a more sensitive line; where the fit passes the top or lowest dose, that dose stands as a limit. AUC, from the same fit, is the share of area under the viability curve across the 256-fold dose range; values near 1 show little effect. Where the top dose is marked as inferred, it comes from the curve model; the source does not state it.
How the values were obtained:
FR-180204 = compound: Nc1[nH]nc2nnc(-c3c(-c4ccccc4)nn4ccccc34)cc12 [FR-180204]; assay: Viability of human cancer cell lines after 72 h of drug (GDSC screen); conditions: top dose 20 µM; top dose inferred
Protocol: (§1)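 Human cancer cell lines in 384-well plates, medium with 10% serum, drug for 72 h over a 256-fold dose range (nine 2-fold or five 4-fold steps up to the top dose). Adherent lines were fixed and stained with the nucleic acid dye Syto60, suspension lines read with resazurin; signal relative to control wells, capped at 0 and 100%. One two-parameter sigmoid per drug and line, fitted in a mixed model over all curves with the slope shared within a line.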

FK866 = compound: O=C(/C=C/c1cccnc1)NCCCCC1CCN(C(=O)c2ccccc2)CC1 [FK866]; assay: as above; conditions: top dose 1 µM; top dose inferred
Protocol: as §1

Row | Cell Line | AUC (FR-180204) | IC50 (FR-180204) [nM] | AUC (FK866) | IC50 (FK866) [nM]
1 | SF295 (glioma, adherent) | 0.985 | > 20000 | 0.183 | 6.35
2 | SF539 (glioma, adherent) | 0.977 | > 20000 | 0.059 | < 3.91
3 | SH-4 (melanoma, adherent) | 0.868 | > 20000 | 0.508 | 66.5
4 | SHP-77 (small cell lung carcinoma, semi-adherent) | 0.99 | > 20000 | 0.938 | > 1000
5 | SIMA (neuroblastoma, adherent) | 0.869 | > 20000 | 0.974 | > 1000
6 | SISO (cervix, adherent) | 0.988 | > 20000 | 0.172 | 6.73
7 | SJRH30 (rhabdomyosarcoma, adherent) | 0.986 | > 20000 | 0.094 | < 3.91
8 | SJSA-1 (bone, adherent) | 0.975 | > 20000 | 0.146 | 4.11
9 | SK-CO-1 (large intestine, adherent) | 0.95 | > 20000 | 0.909 | > 1000
10 | SK-ES-1 (Ewing sarcoma, semi-adherent) | 0.944 | > 20000 | 0.033 | < 3.91
11 | SK-GT-4 (oesophagus, adherent) | 0.973 | > 20000 | 0.591 | 118
12 | SK-HEP-1 (liver, adherent) | 0.985 | > 20000 | 0.083 | < 3.91
13 | SK-LMS-1 (soft tissue, adherent) | 0.987 | > 20000 | 0.166 | 6.47
14 | SK-LU-1 (lung adenocarcinoma, adherent) | 0.978 | > 20000 | 0.929 | > 1000
15 | SK-MEL-1 (melanoma, suspension) | 0.989 | > 20000 | 0.202 | 9.66
16 | SK-MEL-2 (melanoma, adherent) | 0.986 | > 20000 | 0.404 | 33.6
17 | SK-MEL-3 (melanoma, adherent) | 0.909 | > 20000 | 0.978 | > 1000
18 | SK-MEL-5 (melanoma, adherent) | 0.982 | > 20000 | 0.506 | 65.3
19 | SK-MEL-24 (melanoma, adherent) | 0.897 | > 20000 | 0.867 | > 1000
20 | SK-MEL-28 (melanoma, adherent) | 0.963 | > 20000 | 0.618 | 131
21 | SK-MEL-30 (melanoma, adherent) | 0.975 | > 20000 | 0.656 | 174
22 | SK-MES-1 (lung squamous cell carcinoma, adherent) | 0.963 | > 20000 | 0.846 | 830
23 | SK-MG-1 (glioma, adherent) | 0.987 | > 20000 | 0.791 | 456
24 | SK-MM-2 (myeloma, suspension) | 0.897 | > 20000 | 0.083 | < 3.91
25 | SK-N-AS (neuroblastoma, adherent) | 0.961 | > 20000 | 0.541 | 82.6

Row | Cell Line | AUC (FR-180204) | IC50 (FR-180204) [nM] | AUC (FK866) | IC50 (FK866) [nM]
26 | SK-N-DZ (neuroblastoma, adherent) | 0.987 | > 20000 | 0.985 | > 1000
27 | SK-N-FI (neuroblastoma, adherent) | 0.98 | > 20000 | 0.744 | 311
28 | SK-N-SH (neuroblastoma, adherent) | 0.961 | > 20000 | 0.055 | < 3.91
29 | SK-OV-3 (ovary, adherent) | 0.955 | > 20000 | 0.579 | 109
30 | SK-PN-DW (Ewing sarcoma, adherent) | 0.977 | > 20000 | 0.055 | < 3.91
31 | SK-UT-1 (soft tissue, adherent) | 0.989 | > 20000 | 0.101 | < 3.91
32 | SKG-IIIa (cervix, adherent) | 0.981 | > 20000 | 0.878 | > 1000
33 | SKN (uterus, adherent) | 0.977 | > 20000 | 0.649 | 177
34 | SKN-3 (head and neck, adherent) | 0.96 | > 20000 | 0.489 | 58
35 | SLVL (B-cell lymphoma, suspension) | 0.984 | > 20000 | 0.846 | 792
36 | SN12C (kidney, adherent) | 0.977 | > 20000 | 0.175 | 5.57
37 | SNB75 (glioma, adherent) | 0.979 | > 20000 | 0.805 | 819
38 | SNG-M (endometrium, adherent) | 0.963 | > 20000 | 0.07 | < 3.91
39 | SNU-61 (large intestine, adherent) | 0.931 | > 20000 | 0.383 | 26.9
40 | SNU-81 (large intestine, adherent) | 0.982 | > 20000 | 0.744 | 408
41 | SNU-182 (liver, adherent) | 0.981 | > 20000 | 0.845 | 768
42 | SNU-387 (liver, adherent) | 0.967 | > 20000 | 0.951 | > 1000
43 | SNU-398 (liver, adherent) | 0.984 | > 20000 | 0.095 | < 3.91
44 | SNU-407 (large intestine, adherent) | 0.896 | > 20000 | 0.1 | < 3.91
45 | SNU-423 (liver, adherent) | 0.979 | > 20000 | 0.692 | 239
46 | SNU-449 (liver, adherent) | 0.975 | > 20000 | 0.573 | 101
47 | SNU-1040 (large intestine, adherent) | 0.896 | > 20000 | 0.443 | 41.3
48 | SNU-C1 (large intestine, suspension) | 0.975 | > 20000 | 0.664 | 222
49 | SNU-C2B (large intestine, adherent) | 0.964 | > 20000 | 0.583 | 114
50 | SNU-C5 (large intestine, adherent) | 0.946 | > 20000 | 0.218 | 8.4

Row | Cell Line | AUC (FR-180204) | IC50 (FR-180204) [nM] | AUC (FK866) | IC50 (FK866) [nM]
51 | SR (lymphoid neoplasm, suspension) | 0.972 | > 20000 | 0.245 | 12.7
52 | ST486 (Burkitt lymphoma, suspension) | 0.893 | 19200 | 0.086 | < 3.91
53 | SU8686 (pancreas, adherent) | 0.98 | > 20000 | 0.862 | > 1000
54 | SU-DHL-4 (B-cell lymphoma, suspension) | 0.997 | > 20000 | 0.978 | > 1000
55 | SU-DHL-5 (B-cell lymphoma, suspension) | 0.994 | > 20000 | 0.019 | < 3.91
56 | SU-DHL-6 (B-cell lymphoma, suspension) | 0.982 | > 20000 | 0.419 | 39.7
57 | SU-DHL-10 (B-cell lymphoma, suspension) | 0.998 | > 20000 | 0.321 | 23.1
58 | SU-DHL-16 (B-cell lymphoma, suspension) | 0.996 | > 20000 | 0.03 | < 3.91
59 | SUIT-2 (pancreas, adherent) | 0.92 | > 20000 | 0.553 | 87.6
60 | SUP-HD1 (Hodgkin lymphoma, suspension) | 0.986 | > 20000 | 0.199 | 8.45
61 | SUP-M2 (anaplastic large cell lymphoma, suspension) | 0.994 | > 20000 | 0.207 | 11.5
62 | SUP-T1 (T-cell lymphoblastic leukaemia, suspension) | 0.985 | > 20000 | 0.069 | < 3.91
63 | SW13 (adrenal gland, adherent) | 0.987 | > 20000 | 0.636 | 150
64 | SW48 (large intestine, adherent) | 0.938 | > 20000 | 0.588 | 109
65 | SW156 (kidney, adherent) | 0.964 | > 20000 | 0.79 | 500
66 | SW620 (large intestine, adherent) | 0.983 | > 20000 | 0.187 | 8.41
67 | SW626 (ovary, adherent) | 0.949 | > 20000 | 0.649 | 176
68 | SW684 (fibrosarcoma, adherent) | 0.983 | > 20000 | 0.952 | > 1000
69 | SW756 (cervix, adherent) | 0.983 | > 20000 | 0.773 | 464
70 | SW780 (bladder, adherent) | 0.986 | > 20000 | 0.643 | 161
71 | SW837 (large intestine, adherent) | 0.96 | > 20000 | 0.879 | > 1000
72 | SW872 (soft tissue, adherent) | 0.986 | > 20000 | 0.516 | 68.8
73 | SW900 (lung squamous cell carcinoma, adherent) | 0.965 | > 20000 | 0.672 | 205
74 | SW948 (large intestine, adherent) | 0.971 | > 20000 | 0.607 | 141

From the supplement of paper PMC4967469
